Laboratory results as given in PMC4336329 (PLoS ONE, 2015).
Screen size: about 310,000 compounds; about 14,000 (4.5%) showed an effect of 50% or more. Effects have a minus sign here. This is one part of the list.

Molecular target: human ether-à-go-go-related gene (hERG) potassium channel (human, UniProt Q12809)
Test: primary screen, population patch clamp on CHO cells stably expressing hERG
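Further: peak tail current of the secondary pulse compared with the same well before compound.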

Chain of human ether-à-go-go-related gene (hERG) potassium channel (Q12809 whole entry, looked up): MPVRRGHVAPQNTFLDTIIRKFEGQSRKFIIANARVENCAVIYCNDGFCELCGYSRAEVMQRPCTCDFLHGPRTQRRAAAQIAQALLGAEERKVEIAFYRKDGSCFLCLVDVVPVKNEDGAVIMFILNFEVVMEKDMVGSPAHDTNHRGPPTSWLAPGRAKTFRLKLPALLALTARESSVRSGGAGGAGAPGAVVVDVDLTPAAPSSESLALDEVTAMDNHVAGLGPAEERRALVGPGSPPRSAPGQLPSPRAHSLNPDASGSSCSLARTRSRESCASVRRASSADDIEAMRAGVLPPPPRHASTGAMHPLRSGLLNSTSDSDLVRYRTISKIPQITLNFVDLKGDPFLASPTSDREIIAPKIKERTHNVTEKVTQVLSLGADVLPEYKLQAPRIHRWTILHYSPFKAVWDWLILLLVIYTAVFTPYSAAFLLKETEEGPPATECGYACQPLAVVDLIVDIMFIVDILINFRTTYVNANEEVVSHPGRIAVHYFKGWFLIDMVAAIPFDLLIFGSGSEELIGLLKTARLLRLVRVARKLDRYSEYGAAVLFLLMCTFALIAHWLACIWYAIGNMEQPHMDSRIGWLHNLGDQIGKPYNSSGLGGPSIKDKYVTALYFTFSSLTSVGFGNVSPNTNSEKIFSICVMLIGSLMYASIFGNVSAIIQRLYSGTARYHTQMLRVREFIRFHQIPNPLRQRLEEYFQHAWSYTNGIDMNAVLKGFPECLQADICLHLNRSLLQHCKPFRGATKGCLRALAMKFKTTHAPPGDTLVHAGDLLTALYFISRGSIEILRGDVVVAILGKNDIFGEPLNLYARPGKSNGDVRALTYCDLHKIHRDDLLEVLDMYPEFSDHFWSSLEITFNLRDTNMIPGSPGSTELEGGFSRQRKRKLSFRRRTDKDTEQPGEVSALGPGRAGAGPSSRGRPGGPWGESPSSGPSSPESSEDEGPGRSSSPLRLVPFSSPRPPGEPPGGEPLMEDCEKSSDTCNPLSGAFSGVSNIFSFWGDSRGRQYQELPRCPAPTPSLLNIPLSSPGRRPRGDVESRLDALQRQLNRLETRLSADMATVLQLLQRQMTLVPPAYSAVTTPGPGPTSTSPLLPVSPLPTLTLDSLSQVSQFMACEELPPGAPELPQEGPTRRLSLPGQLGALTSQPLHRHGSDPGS

Compound	hERG current change (%, negative = inhibition) at 10uM
Cc1onc(-c2ccccc2Cl)c1C(=O)NCc1cccnc1	8.17%
Clc1ccc(-c2nc(NCCCN3CCOCC3)c3ccccc3n2)cc1	-18.9%
Cc1cc(NC(=O)c2c(-c3c(F)cccc3Cl)noc2C)no1	-8.5%
O=C(Nc1ccc2c(c1)CCC2)c1cc(S(=O)(=O)Nc2ccc(F)cc2)c(Cl)cc1Cl	1.9%
O=C1CSC(=Nc2ccc(Cl)cc2)N1Cc1ccco1	-9.14%
COc1ccc(NC(=O)COC(=O)c2cc([N+](=O)[O-])ccc2N2CCOCC2)cc1	-29.3%
Cc1ccc(NC(=O)c2cc(C)n(-c3ccccc3)c2C)cc1	-9.93%
CC12CC(NC(=O)N1c1cccc(C(=O)N3CCCCC3)c1)c1ccccc1O2 (stereo not shown)	15.2%
CC1(C)CC2CC(C)(CN2S(=O)(=O)c2ccc(C(=O)Nc3ccc(Cl)c(S(=O)(=O)N4CCOCC4)c3)cc2)C1 (stereo not shown)	-6.26%
Cc1ccc(-c2nn3c(C)nnc3s2)cc1NC(=O)c1ccco1	-11.7%
COc1ccc(S(=O)(=O)N(CC(N)=O)C2CCCCC2)cc1Cl	4.39%
Cc1cc(C)c(C)c(S(=O)(=O)NCc2ccc(C(=O)N3CCCCC3)cc2)c1C	-1.77%
CN(c1nc2ccccc2n2c(-c3ccco3)nnc12)S(=O)(=O)c1ccccc1	-10.8%
N/C(=N\OC(=O)CCc1ccccc1)c1cccc(Br)c1	1.33%
Cn1c(=O)oc2cc(S(=O)(=O)NCCC(=O)N3CCc4ccccc43)ccc21	1.24%
CCCCNS(=O)(=O)c1ccc2nc(-c3cccnc3)cc(C(=O)NCCCOC)c2c1	-0.263%
CC1CN(C2CCCCC2)c2nc3c(c(=O)[nH]c(=O)n3C)n2C1 (stereo not shown)	-4.42%
CNC(=S)NNC(=O)CCn1nc(C)c(Br)c1C	15.8%
O=C(Nc1cccnc1)c1ccc(-c2ccccc2)cc1	2.38%
COc1ccc(CN(Cc2cccnc2)S(=O)(=O)c2ccc(-n3cnnn3)c(OC)c2)cc1	-46.7%
O=C(NCc1ccco1)C1(c2ccccc2)CCCC1	12%
Cc1ccc(N(C)S(=O)(=O)c2cccc(C(=O)OCC(=O)N3CCCC(C)C3)c2)cc1 (stereo not shown)	-36.8%

Compound	hERG current change (%, negative = inhibition) at 10uM
CCOC(=O)c1cnc2ccc(C)cc2c1NCCN1CCOCC1.Cl	-65.7%
O=C(Nc1cccc(OCC(=O)N2CCOCC2)c1)c1ccc(C(F)(F)F)cc1	-7.91%
CCOC(=O)c1cc2sc(C)cc2n1CCCN1C(=O)c2ccccc2C1=O	6.09%
CC1C/C(=C/c2cccn2C)C(=O)/C(=C/c2cccn2C)C1 (stereo not shown)	9.5%
CCC1CN(C(=O)NCc2ccccc2)c2cc(C)ccc2O1 (stereo not shown)	1.95%
O=C(NCCc1ccc2c(c1)OCCO2)c1ccc([N+](=O)[O-])cc1Cl	-7.02%
CCc1sc(C(=O)Nc2ccc3c(c2)OCCO3)cc1Br	15.2%
COc1ccc(CCNC(=O)c2cccs2)cc1	10.9%
COc1ccc(OCc2cc(C(=O)NCC(C)Oc3cccnc3)no2)c(Cl)c1 (stereo not shown)	-52.6%
O=C(COC(=O)CCS(=O)(=O)c1ccc(Cl)cc1)Nc1ncc(Cl)cc1Cl	-17.6%
Cc1ccccc1NC(=O)CN1CCC(NC(=O)Nc2ccccc2)CC1	-35.9%
CC(=O)Nc1cn(C(C)=O)c(C)n1	2.27%
C=CCn1c(Cc2cccs2)nnc1SCC(=O)Nc1ccc(OC)cc1	-30.5%
COCCn1c(C)cc(C2=NNC(=Nc3ccccc3)SC2)c1C	-13.9%
CC(O)(CS(=O)(=O)c1ccccc1)C(=O)Nc1cccc(C(F)(F)F)c1 (stereo not shown)	-14.9%
Cc1csc(=O)n1CC(=O)OCC(=O)c1c(N)n(C)c(=O)n(C)c1=O	4.36%
CCCCCCNS(=O)(=O)c1nc2nc(C)cc(C)n2n1	-8.27%
Cc1ccc(-n2cnc3scc(-c4cccs4)c3c2=O)cc1	3.67%
CCC(=O)N1CCN(c2cc(N3CCCC3)c(F)cc2[N+](=O)[O-])CC1	-10.4%
OCCN1CCN(C(=S)Nc2ccc(SC(F)F)cc2)CC1	-18.4%
Cc1ccc2nsnc2c1S(=O)(=O)N1CCN(C)CC1	3.83%
CC(C)c1ccccc1NC(=S)NC1CCN(Cc2ccccc2)CC1	-47.8%

Compound	hERG current change (%, negative = inhibition) at 10uM
O=S(=O)(c1cccc(Br)c1)N1CCN(CCc2ccccc2)CC1	17.4%
Cc1cccc(-c2nc(CS(=O)CC(=O)NCCc3ccccc3)c(C)o2)c1 (stereo not shown)	-7.14%
CCOC(=O)C1=C(C)OC(N)=C(C#N)C12C(=O)Nc1ccc(C)cc12 (stereo not shown)	5.89%
COc1cc(/C=C/C(=O)OCC(=O)NCC2CCCCC2)ccc1O	-10.6%
CCCCOc1ccc(C(=O)Nc2ccc(SC(F)F)cc2)cc1OC	2.23%
CCn1c(N2CCN(CC(=O)c3c(C)n(C)c4ccccc34)CC2)nc2c1c(=O)[nH]c(=O)n2C	5.34%
CC(C)(CNC(=O)c1ccc(-c2cccc(C(F)(F)F)c2)o1)N1CCOCC1	-76.3%
Cc1nc(-c2ccc(Cl)cc2)sc1C1(C)CC(c2ccc(C#N)cc2)=NO1 (stereo not shown)	-29.2%
Cc1ccccc1NC(=O)CN(C)S(=O)(=O)c1ccc(-c2ccc(=O)[nH]n2)s1	-78.6%
C[C@]12C=CC(=O)C=C1CC[C@@H]1C2CC[C@]2(C)OC(=O)CCC12 (stereo partly shown)	0.661%
CCOC(=O)c1c(CC(C)C)csc1/N=C/C1C(=O)CC(C)(C)CC1=O	14.3%
COc1ccc(-c2ccc(=O)n(CC(=O)NC3CCc4ccccc43)n2)cc1OC (stereo not shown)	-15.9%
CC(=O)NC(Cc1ccc(N(CCCl)CCCl)cc1)C(=O)O (stereo not shown)	-0.713%
CC1CN(C(C)C)C(C)CC1OC(=O)c1ccccc1 (stereo not shown)	15.7%
O=C(CN1CCN(C(=O)c2ccco2)CC1)Nc1ccc(Cl)c(C(F)(F)F)c1	-67.1%
Cc1nc(-c2ccc(S(=O)(=O)N3CCCCCC3)cc2)cs1	11.7%
O=C(O)c1cccc(CN2C(=O)SC(Nc3cccc4ccccc34)C2=O)c1 (stereo not shown)	-3.22%
Cc1cc(C(=O)CSc2nnnn2-c2ccccc2)c(C)n1CC1CCCO1 (stereo not shown)	-1.92%
COCCN(CC(=O)Nc1cccc(C)c1C)C(=O)c1ccc2ccccc2n1	-0.121%
O=C(Nc1cc(C(F)(F)F)ccc1F)C1CCCCC1	-7.8%
Cc1ccc(C(=O)COC(=O)CNC(=O)Cc2ccccc2)cc1	-2.44%
CCOC(=O)CNC(=O)C(Cc1ccccc1)NS(=O)(=O)c1ccc2c(c1)CCC(=O)N2 (stereo not shown)	-13.6%

Compound	hERG current change (%, negative = inhibition) at 10uM
Cc1cc2nnc(SCC(=O)NC3CCCCC3)n2c(N)n1	9.47%
CCCCNC(=O)c1c(O)c2cccc3c2n(c1=O)CCC3	-2.3%
O=c1cc(CSc2nnc(COc3cccc4ccccc34)o2)c2ccccc2[nH]1	22.2%
CC(C)n1c(CCCO)nc2ccccc21	-11.7%
O=C(Oc1ccc(C(=S)N2CCCCC2)cc1)c1ccccc1F	9.75%
CC(C)(C)C(=O)C1=C(O)C(=O)N(Cc2ccccc2)C1c1ccccc1F (stereo not shown)	25.2%
COc1cc(NS(=O)(=O)c2csc(C(N)=O)c2)cc(OC)c1	20%
CCOC(=O)C1(CCOc2ccccc2)CCN(Cc2cccc(OC)c2)CC1	-76.1%
COC(=O)c1sccc1NC(=O)CC1C(=O)NCCN1C(=O)Nc1ccc(OCc2ccccc2)cc1 (stereo not shown)	-37.5%
CC(C)Cc1ccc(CN2CCCC(NC(=O)CCCN3CCCC3=O)C2)cc1 (stereo not shown)	-25.8%
CCCCn1c(N)c(N(CCC(C)C)C(=O)c2ccc(-c3ccc([N+](=O)[O-])cc3)o2)c(=O)[nH]c1=O	2.62%
Oc1ccc(NC(=S)N=Nc2c(O)[nH]c3ccccc23)cc1	-2.83%
COc1ccc(-c2ncncc2-c2ccc(OC)c(OC)c2)c(O)c1	3.42%
COc1ccc(C2C(C(=O)/C=C/c3ccco3)=C(O)C(=O)N2CCN2CCOCC2)cc1OC (stereo not shown)	8.67%
O=c1cc(CCl)nc2scc(-c3ccccc3)n12	-0.908%
CC(C)OP(=O)(c1ccc(N(C)C)cc1)C(O)c1ccncc1 (stereo not shown)	-14.8%
CCCCN1CC(C(=O)NC2CCCCC2)CC1=O (stereo not shown)	13.2%
Cc1ccc(N2CC(C(=O)NC3CC3)CC2=O)cc1Cl (stereo not shown)	10%
COc1ccc(Cc2nnc(NC(=O)Nc3ccccc3F)s2)cc1OC	8.55%
Cc1cc2cc(CNC(=O)c3cccs3)ccc2n1C	-0.453%
CN(/N=C/c1ccc(Cl)cc1)c1ncc(Cl)cc1C(F)(F)F	19.7%
CCn1c(CNC(=O)c2ccc(OC)c(OC)c2)nnc1SCC(=O)Nc1ccc(OC)cc1	10.6%
